Laboratory results from the RNAGym collection of RNA variant scans (doi:10.1073/pnas.2313332121).
Variants at the floor of the assay are shown more often than the library holds them.

B1: TPR 5TU (parent)
chain: GGAUCUUCUCGAUCUAACAAAAAAGACAAAUCUGCCACAAAGCUUGAGAGCAUCUUCGGAUGCAGAGGCGGCAGCCUUCGGUGGCGCGAUAGCGCCAACGUUCUCAACUAUGACACGCAAAACGCGUGCUCCGUUGAAUGGAGUUUAUCAUG

Variants of: B1
Experiment: polymerase ribozyme fitness, log enrichment relative to wild type (log ratio); higher = more active; in vitro selection for triplet polymerase activity
In short: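 Mutant libraries were PCR-built and transcribed for each subunit of a heterodimeric triplet polymerase ribozyme and selected for one round in triplicate at −7 °C, frozen, before gel excision of extended constructs and streptavidin-bead capture. Input and output libraries were Illumina-sequenced, keeping genotypes with ≥10 input reads and ≥1 read per output. Fitness is a logarithmic ratio of genotype to wild-type enrichment, in base 2, using inverse-variance-weighted replicate averages.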

G46U C57G G70C U78G C87U G88U G143A U144A and G46U C72A U90G A97G G100A U104A A107G G124C cannot be ordered by “polymerase ribozyme fitness (log ratio)” value: at most -4.2 for the first, at most -4.2 for the second.

G46U C85U C99U G100A and G46U C85U G92A U101A G117A cannot be ordered by “polymerase ribozyme fitness (log ratio)” value: at most -4.2 for the first, at most -4.2 for the second.

First: G46U C87G A89G C95G C123G U130A
Second: G46U C93U
The “polymerase ribozyme fitness (log ratio)” value of the first is lower: at most -4.2 for the first, -0.878 for the second.

G46U G48A G50A U53A G92A A121G G143A A150G and G46U G48U G74U U82G cannot be ordered by “polymerase ribozyme fitness (log ratio)” value: at most -4.2 for the first, at most -4.2 for the second.

Going from G46U G50C to G46U G83U, the “polymerase ribozyme fitness (log ratio)” value rises from at most -4.2 to -2.29.

G46U G84U U90G A98C G126A G136U U144G and G46U G86U G140C U148A cannot be ordered by “polymerase ribozyme fitness (log ratio)” value: at most -4.2 for the first, at most -4.2 for the second.

G46U U55A U61G G86C A89G A91G C93U U127C G128A A142C and G46U U90G C93U cannot be ordered by “polymerase ribozyme fitness (log ratio)” value: at most -4.2 for the first, at most -4.2 for the second.

Going from A47C A49C C57G U61A A66C A73G U111G G140A to A47C A49G, the “polymerase ribozyme fitness (log ratio)” value rises from at most -4.2 to -0.809.

A47C A52U G68C C93A G124A and A47C A60G A113C G126A A142C cannot be ordered by “polymerase ribozyme fitness (log ratio)” value: at most -4.2 for the first, at most -4.2 for the second.

A47C A64C C108U and A47C A66U C76A U77G A110C A115G cannot be ordered by “polymerase ribozyme fitness (log ratio)” value: at most -4.2 for the first, at most -4.2 for the second.

A47C A113C A137C and A47C C54G C87A cannot be ordered by “polymerase ribozyme fitness (log ratio)” value: at most -4.2 for the first, at most -4.2 for the second.

First: A47C C54U U55A U101C
Second: A47C C57A C79U A150G
The “polymerase ribozyme fitness (log ratio)” value of the first is higher: 0.0498 for the first, at most -4.2 for the second.

Compared with A47C C57A C93U, A47C C57A C93U U148G is lower in “polymerase ribozyme fitness (log ratio)” value: -1.3 for the first, at most -4.2 for the second.

Going from A47C C57A G94A U144G to A47C C57G C93U U151G, the “polymerase ribozyme fitness (log ratio)” value falls from 1.12 to at most -4.2.

A47C C57U G67C C69A A91U C149U and A47C C63A C87G cannot be ordered by “polymerase ribozyme fitness (log ratio)” value: at most -4.2 for the first, at most -4.2 for the second.

Going from A47C C85A C118U to A47C C85G C103G, the “polymerase ribozyme fitness (log ratio)” value falls from -0.946 to at most -4.2.

A47C C87A A91G A98U C108U A137U and A47C C87A A120U C125A cannot be ordered by “polymerase ribozyme fitness (log ratio)” value: at most -4.2 for the first, at most -4.2 for the second.

A47C C87A G88U and A47C C93A A106U U109G cannot be ordered by “polymerase ribozyme fitness (log ratio)” value: at most -4.2 for the first, at most -4.2 for the second.

Going from A47C C95U to A47C C95U C96U C118U C131U, the “polymerase ribozyme fitness (log ratio)” value falls from 0.141 to -1.83.

Compared with A47C C96U A107U, A47C C103G A113C A137G is lower in “polymerase ribozyme fitness (log ratio)” value: -3.57 for the first, at most -4.2 for the second.

Compared with A47C C105G A137U, A47C C129G is higher in “polymerase ribozyme fitness (log ratio)” value: at most -4.2 for the first, -4.19 for the second.

A47C G48A U53A A73C U104G A120G and A47C G48A U61A A98U C123A U139A U144G U148A cannot be ordered by “polymerase ribozyme fitness (log ratio)” value: at most -4.2 for the first, at most -4.2 for the second.

A47C G48A U61A U82C A98U C123A U139A U144G U148A and A47C G48C G74C U78G G143U cannot be ordered by “polymerase ribozyme fitness (log ratio)” value: at most -4.2 for the first, at most -4.2 for the second.

A47C G50A C51A U56A C57A C93G A142C and A47C G50C U53A A89G A106U A120C G136A cannot be ordered by “polymerase ribozyme fitness (log ratio)” value: at most -4.2 for the first, at most -4.2 for the second.

A47C G58U C99A U148G and A47C G59C U102G U145A cannot be ordered by “polymerase ribozyme fitness (log ratio)” value: at most -4.2 for the first, at most -4.2 for the second.

A47C G62A G70A U82A C85U G86A G152C and A47C G62U C99G G143U cannot be ordered by “polymerase ribozyme fitness (log ratio)” value: at most -4.2 for the first, at most -4.2 for the second.

Compared with A47C G81C G88C C103G, A47C G83U is higher in “polymerase ribozyme fitness (log ratio)” value: at most -4.2 for the first, -1.01 for the second.

First: A47C G84C C93A
Second: A47C G86A C149U
The “polymerase ribozyme fitness (log ratio)” value of the first is lower: at most -4.2 for the first, -1.64 for the second.

First: A47C G92U C105U C131G
Second: A47C G94A
The “polymerase ribozyme fitness (log ratio)” value of the first is lower: at most -4.2 for the first, -2.54 for the second.

First: A47C G126A
Second: A47C U53A A60U C76G C93A C123U
The “polymerase ribozyme fitness (log ratio)” value of the first is higher: 0.0505 for the first, at most -4.2 for the second.

A47C U53A G71A G94A and A47C U53G C79A C87A C99U G136U cannot be ordered by “polymerase ribozyme fitness (log ratio)” value: at most -4.2 for the first, at most -4.2 for the second.

A47C U56A C87A C93G A121U C132G G143A U144C and A47C U61G G65C C76A C87U U134G G141U A142U cannot be ordered by “polymerase ribozyme fitness (log ratio)” value: at most -4.2 for the first, at most -4.2 for the second.

Going from A47C U61G G94C C116A to A47C U82A, the “polymerase ribozyme fitness (log ratio)” value rises from at most -4.2 to -0.366.

A47G A49G G68U and A47G A52G C57U G80A U135G A138G cannot be ordered by “polymerase ribozyme fitness (log ratio)” value: at most -4.2 for the first, at most -4.2 for the second.

A47G A52U G68U C79A C93U C99A G141C A142G G143U and A47G A66C U77G U134C cannot be ordered by “polymerase ribozyme fitness (log ratio)” value: at most -4.2 for the first, at most -4.2 for the second.

A47G A73G G83C C87U G152C and A47G C51A A64G G86A A89C A110G cannot be ordered by “polymerase ribozyme fitness (log ratio)” value: at most -4.2 for the first, at most -4.2 for the second.

First: A47G C51U C87U
Second: A47G C54A U61G C72U G94C C99U U102G
The “polymerase ribozyme fitness (log ratio)” value of the first is higher: -0.414 for the first, at most -4.2 for the second.

A47G C57U C85G G88C C93U and A47G C63G G74C A120G cannot be ordered by “polymerase ribozyme fitness (log ratio)” value: at most -4.2 for the first, at most -4.2 for the second.

A47G C69A G84C G100A A147C and A47G C75G A107U U135A U148C cannot be ordered by “polymerase ribozyme fitness (log ratio)” value: at most -4.2 for the first, at most -4.2 for the second.

A47G C85A G100A A120C G133U and A47G C85G U130G cannot be ordered by “polymerase ribozyme fitness (log ratio)” value: at most -4.2 for the first, at most -4.2 for the second.

Going from A47G C87U to A47G C108U G140U, the “polymerase ribozyme fitness (log ratio)” value falls from 0.257 to at most -4.2.

For A47G G48C G84U A121U A138C, the “polymerase ribozyme fitness (log ratio)” value was at most -4.2.
